# Measurements reported in PubChem BioAssay AID488969 (Vanderbilt High Throughput Screening Facility, 2010).
# Whole data set: some 110,000 compounds, median “z-score” near -0.1, cut for the highest 2% near 2. This is one part of the list. The source made the active and inactive calls.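 Rule for the calls: active = z-score in the third read window above 3 or below -3; inactive = the rest.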 Non-standard residues stand in square brackets, D forms with d. Residues, ends and D or L forms follow the SMILES beside them. ξ: configuration not given here. *: point of attachment. Cbz = O=C(OCc1ccccc1)*; ξV = CC(C)C(N)C(=O)O; OtBu = CC(C)(C)O*
# Biological target: Metabotropic glutamate receptor 8 (Rattus norvegicus) (UniProt P70579)
# Sequence of UniProt P70579 (P70579 whole entry, looked up): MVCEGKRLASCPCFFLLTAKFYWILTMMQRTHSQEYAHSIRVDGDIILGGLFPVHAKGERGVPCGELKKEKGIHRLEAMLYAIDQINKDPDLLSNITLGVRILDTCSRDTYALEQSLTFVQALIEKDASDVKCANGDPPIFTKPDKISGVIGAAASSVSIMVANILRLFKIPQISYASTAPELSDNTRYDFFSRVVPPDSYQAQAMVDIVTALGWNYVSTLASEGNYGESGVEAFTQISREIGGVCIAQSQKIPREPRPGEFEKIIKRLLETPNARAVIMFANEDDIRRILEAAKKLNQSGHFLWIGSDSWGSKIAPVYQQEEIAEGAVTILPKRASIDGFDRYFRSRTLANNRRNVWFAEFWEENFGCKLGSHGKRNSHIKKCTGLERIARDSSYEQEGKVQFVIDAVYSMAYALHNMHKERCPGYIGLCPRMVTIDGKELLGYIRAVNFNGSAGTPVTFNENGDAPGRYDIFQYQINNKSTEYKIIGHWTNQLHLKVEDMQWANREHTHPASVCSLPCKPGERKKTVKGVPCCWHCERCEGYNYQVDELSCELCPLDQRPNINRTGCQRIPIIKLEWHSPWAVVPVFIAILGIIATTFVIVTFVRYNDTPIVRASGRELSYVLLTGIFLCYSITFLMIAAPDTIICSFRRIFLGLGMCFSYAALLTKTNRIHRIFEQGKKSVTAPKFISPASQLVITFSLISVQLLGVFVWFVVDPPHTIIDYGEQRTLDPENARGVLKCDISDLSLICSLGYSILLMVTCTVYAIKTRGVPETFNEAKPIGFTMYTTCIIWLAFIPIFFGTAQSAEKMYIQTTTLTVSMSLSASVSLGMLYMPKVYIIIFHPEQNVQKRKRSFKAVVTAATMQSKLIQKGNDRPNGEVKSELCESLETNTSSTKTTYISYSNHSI
# Experiment: mGluR8 Gi/Go-coupled signaling modulation – cell-based, rat, thallium flux, HTS, primary screen (AID 488969)
# Settings: HEK293 rat mGluR8, GIRK (G protein-gated inwardly rectifying potassium channel) thallium flux, FluoZin2; at 10 µM; stronger effect = higher value; submaximal glutamate (EC20) added with thallium
row,SMILES,z-score
1,CCC(C)(C)NC(=O)c1ccc2c(c1)S(=O)(=O)c1ccccc1C2=O,-0.756
2,O=C(O)CCCC(=O)N1CCc2cc(S(=O)(=O)N3CCc4ccccc43)ccc21,-0.342
3,CCN(CC)S(=O)(=O)c1cccc(C(=O)N[C@H](C(=O)NCc2ccccc2F)C(C)C)c1,0.114
4,O=C(Oc1ccc([N+](=O)[O-])cc1)c1ccc(Cl)c(S(=O)(=O)N2CCCCC2)c1,-0.509
5,CS(=O)(=O)N(Cc1ccc(C(=O)NN=C2CCCC2)cc1)c1ccccc1,-0.157
6,CCOc1ccc(NC(=O)CC2C(=O)N(C)C(=S)N2Cc2ccc3c(c2)OCO3)cc1 (stereo unspecified),-0.0979
7,O=C(NNc1ccc([N+](=O)[O-])cc1)C12CC3CC(CC(C3)C1)C2,-0.251
8,Cc1ccccc1NC(=O)/C(=C\c1cccs1)NC(=O)c1ccccc1,-0.288
9,O=C(c1cccs1)N1CCN(S(=O)(=O)N2CCCCC2)CC1,0.729
10,CC(C)OC(=O)CSc1nnc(-c2ccccn2)n1-c1ccccc1,0.387
11,Cc1ccc(C(=O)Nn2cnc3scc(-c4cccs4)c3c2=O)c(O)c1,-0.0878
12,COc1ccc(C(=O)OCCCN(C)C)cc1OC,-0.136
13,CCCCNC(=O)COc1ccccc1C(=O)c1cc(C#N)c(=O)n(CCOC)c1,-0.344
14,CC(NC(=O)C1CCC(=O)N1Cc1ccc(F)cc1)c1ccc2c(c1)OCCO2 (stereo unspecified),-0.129
15,C=CCn1c(SCc2ccc(Cl)cc2)nc2cc(C(=O)N3CCC(C(N)=O)CC3)ccc2c1=O,-0.178
16,C/C(=C\C(=O)c1ccc(C)o1)Nc1ccc(C(=O)O)cc1C,0.648
17,Cc1noc(C(=O)Nc2sc3c(c2C#N)CCC3)c1Cl,-1.31
18,CCC(OC(=O)c1cc2sccc2n1C)C(=O)NCC1CCCO1 (stereo unspecified),-0.0491
19,O=C(COC(=O)c1ccc(Cl)c([N+](=O)[O-])c1)Nc1ccccc1OC(F)F,-0.229
20,COc1ccccc1NC(=O)c1ccc(-c2ccccc2F)o1,0.0911
21,COc1ccc(N2CCN(C(=O)c3ccc(C)cc3)CC2)c([N+](=O)[O-])c1,-0.327
22,COc1ccc(C=O)cc1COc1ccc(C)cc1[N+](=O)[O-],-0.197
23,C=CCOc1c(Cl)cc(CNc2ccc(C)c(Cl)c2)cc1OC,-0.139
24,COc1ccc(-c2cn3cc(C)ccc3n2)cc1OC,0.227

row,SMILES,z-score
1,N#Cc1c2n(c3c(-c4ccccc4)ncnc13)CCC2,-0.173
2,CSc1nsc(SC)c1NC(=O)OCC1CCCO1 (stereo unspecified),-0.0464
3,CC(C)(C)C(=O)Nc1ccccc1C(=O)N1CCCC1,-0.35
4,O=C(CC(Sc1ccccc1)c1cccs1)c1ccco1 (stereo unspecified),0.38
5,Nc1cc2c([N+](=O)[O-])cccc2o1,0.254
6,CN(c1ccc(C(=O)Nc2nccs2)cc1)S(=O)(=O)c1ccccc1,-0.945
7,CC(C)C(NC(=O)OCc1ccccc1)C(=O)NCC(=O)OC(C)(C)C (stereo unspecified) (Cbz-[ξV]-Gly-OtBu),0.0191
8,CC(C)(C)n1nnnc1C(c1ccc(C(F)(F)F)cc1)N(Cc1ccccc1)Cc1ccco1 (stereo unspecified),0.067
9,Cc1ccc2[nH]c3c(c2c1)CN(C(=O)CN1CCN(Cc2ccc4c(c2)OCO4)CC1)CC3,-0.595
10,CC1CCCCC1NC(=O)CSc1nnc(N)s1 (stereo unspecified),0.0767
11,O=C(COc1ccccc1)NCCSCc1ccco1,-0.155
12,Cc1ccc(S(=O)(=O)NCCNC(=O)c2cc(OCC(F)(F)F)ccc2OCC(F)(F)F)cc1,-0.185
13,CC1CN(C(=O)CCc2ccccc2)C(C)CN1C(=O)CCc1ccccc1 (stereo unspecified),-0.466
14,C/C(=N\NC(=O)c1ccccc1O)c1ccc(Br)s1,2.99
15,Cc1ccc2c(c1)NC(=O)C(CC(=O)NCCCN1CCCCC1)O2 (stereo unspecified),-0.0168
16,O=C(Nc1ccc2oc(-c3ccccc3)nc2c1)c1cccs1,0.244
17,O=C(NCCOc1cccc(Oc2ccccc2)c1)c1cc(-n2cnnc2)ccc1Cl,-0.165
18,CS(=O)(=O)c1ccc(Sc2nc3ccccc3[nH]2)c([N+](=O)[O-])c1,-0.102
19,Cc1ccccc1S(=O)(=O)c1c(C)cc(C)n(CC(C)C)c1=O,0.00175
20,O=C(c1ccccc1)c1cc(-c2ccccn2)c(N2CCOCC2)s1,-0.371
21,COc1ccc(NCC(O)Cn2cnc3c2c(=O)n(C)c(=O)n3C)cc1 (stereo unspecified),-0.122
22,O=C(O)c1cc(-c2ccccc2)n[nH]1,0.685
23,CCC(=O)Nc1nc2c(OC)ccc(OC)c2s1,0.14
24,CSc1nsc(SC)c1C(=O)Nc1ccc(C)cc1,-0.0877

row,SMILES,z-score
1,CN(C)CCCOC(=O)c1cc2ccccc2o1,0.619
2,Nc1cc(C(=O)c2cccs2)ccc1Cl,0.11
3,COc1ccccc1/C=N/n1c(C)nnc1-n1nc(C)cc1C,-0.476
4,Cc1ccc2[nH]c(C(=O)O)c(NC(=O)c3ccccc3[N+](=O)[O-])c2c1,0.136
5,COc1cc2cnc(Cl)nc2cc1OC,-0.182
6,CCCC(C)NNC(=O)c1cc2ccccc2[nH]1 (stereo unspecified),0.0595
7,COCc1cc(=O)n2c([nH]c3ccccc32)c1C#N,0.0741
8,COC(=O)c1ccc(N2CCN(C)CC2)c(NC(=O)c2cc3ccccc3o2)c1,-0.491
9,CCOC(=O)C1CCCN(S(=O)(=O)c2ccc(F)c(C(=O)Nc3ccc(F)c(F)c3)c2)C1 (stereo unspecified),-0.23
10,CCCCOC(=O)c1ccc(NC(c2ccc(C)cc2)P(=O)(OC)OC)cc1 (stereo unspecified),-0.0897
11,Cc1cccc(C(=O)O/N=C2\CCS(=O)(=O)c3sccc32)c1,-0.127
12,CCc1ccc(CN(C)CCc2ccccn2)cc1,-0.314
13,Cc1cc(N2CCN(c3ccccc3)CC2)n2cc(-c3ccccc3)nc2n1,-0.235
14,Cc1cc(C)c2nc(SC(C)C(=O)NCC(=O)Nc3ccc(F)c(F)c3F)cc(C)c2c1 (stereo unspecified),active: 7.48
15,COCCn1nnnc1SCC(=O)N1CCCCC1,-0.27
16,COCCNC(=O)c1cnn2c1NC(c1ccco1)CC2C(F)(F)F (stereo unspecified),0.0267
17,Cc1cccc(SCc2noc(C(=O)NC(C)C)c2C(=O)O)c1,-0.0231
18,Cc1ccccc1CN1CCN(S(=O)(=O)c2ccc(F)cc2)CC1,-0.61
19,CCc1ccc(-c2nc(CSCC(=O)N3CCN(c4ncccn4)CC3)c(C)o2)cc1,-0.64
20,NS(=O)(=O)c1ccc(NC(=S)NC(=O)c2ccco2)cc1,-0.0865
21,CCCc1nnc(SCC(=O)N2CCCCC2C)n1CC (stereo unspecified),0.0594
22,CCOC(=O)c1cc(C)sc1NC(=O)CCC(=O)O,-0.17
23,Cc1sc(Nc2ccc([N+](=O)[O-])cc2)nc1-c1c(C)n(C)n(-c2ccccc2)c1=O,-0.51
